Test system: A375 cells
Test: Phospho-ERK ELISA assay
Assay type: cell-based
Conditions: Homo sapiens, A-375, 3 hours with inhibitor, anti-p44/42MAPK antibody ELISA, normalized for protein content
Method in brief: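 A375 cells treated with Raf kinase inhibitors for 3 hours at 37° C, then fixed, permeabilised with methanol and immunostained with anti-p44/42 MAPK antibody plus HRP secondary. TMB colour read as optical density at 650 nm, normalised to well protein content by BCA assay.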

Row | Structure (SMILES) | IC50
1 | O=C(CCc1cccc(Oc2ccnc(C3=NCCN3)c2)c1)Nc1ccc(CO)c(C(F)(F)F)c1 [Compound A-67, 3-(3-{[2-(4,5-dihydro-1H-imidazol-2-yl)pyridin-4-yl]oxy}phenyl)-N-[4-(hydroxymethyl)-3-(trifluoromethyl)phenyl]propanamide] | 10 to 25 µM
2 | O=C(CCc1cccc(Oc2ccnc(C3=NCCN3)c2)c1)Nc1ccc(Cl)c(C(F)(F)F)c1 [Compound A-55, N-[4-chloro-3-(trifluoromethyl)phenyl]-3-(3-{[2-(4,5-dihydro-1H-imidazol-2-yl)pyridin-4-yl]oxy}phenyl)propanamide] | 1 to 10 µM
3 | O=C(CCc1cccc(Oc2ccnc(C3=NCCCN3)c2)c1)Nc1ccc(Cl)c(C(F)(F)F)c1 [Compound A-74, N-[4-chloro-3-(trifluoromethyl)phenyl]-3-(3-{[2-(1,4,5,6-tetrahydropyrimidin-2-yl)pyridin-4-yl]oxy}phenyl)propanamide] | 1 to 10 µM
4 | Cc1cnc(-c2cc(Oc3ccc(CCC(=O)Nc4ccc(Cl)c(C(F)(F)F)c4)cc3)ccn2)[nH]1 [Compound A-232, N-[4-chloro-3-(trifluoromethyl)phenyl]-3-(4-{[2-(5-methyl-1H-imidazol-2-yl)pyridin-4-yl]oxy}phenyl)propanamide] | 1 to 10 µM
5 | N=C(NCCN1CCOCC1)c1cc(Oc2ccc(CCC(=O)Nc3ccc(Cl)c(C(F)(F)F)c3)cc2)ccn1 [Compound A-227, N-[4-chloro-3-(trifluoromethyl)phenyl]-3-{4-[(2-{imino[(2-morpholin-4-ylethyl)amino]methyl}pyridin-4-yl)oxy]phenyl}propanamide] | 10 to 25 µM
6 | CN(C)CC#Cc1ccc(NC(=O)CCc2cccc(Oc3ccnc(C4=NCCN4)c3)c2)cc1C(F)(F)F [Compound A-66, 3-(3-{[2-(4,5-dihydro-1H-imidazol-2-yl)pyridin-4-yl]oxy}phenyl)-N-[4-[3-(dimethylamino)prop-1-yn-1-yl]-3-(trifluoromethyl)phenyl]propanamide] | 10 to 25 µM
7 | O=C(/C=C/c1cccc(Oc2ncnc3[nH]cnc23)c1)Nc1ccc(Cl)c(C(F)(F)F)c1 [Compound B-3, (2E)-N-[4-chloro-3-(trifluoromethyl)phenyl]-3-[3-(9H-purin-6-yloxy)phenyl]acrylamide] | 1 to 10 µM
8 | C[C@@H]1CNC(c2cc(Oc3cccc(CCC(=O)Nc4ccc(Cl)c(C(F)(F)F)c4)c3)ccn2)=N1 [Compound A-251, N-[4-chloro-3-(trifluoromethyl)phenyl]-3-[3-({2-[(4R)-4-methyl-4,5-dihydro-1H-imidazol-2-yl]pyridin-4-yl}oxy)phenyl]propanamide] | 1 to 10 µM
9 | CC(C)(O)c1cccc(NC(=O)CCc2cccc(Oc3ccnc(C4=NCCN4)c3)c2)c1 [Compound A-104, 3-(3-{[2-(4,5-dihydro-1H-imidazol-2-yl)pyridin-4-yl]oxy}phenyl)-N-[3-(1-hydroxy-1-methylethyl)phenyl]propanamide] | 1 to 10 µM
10 | CNC(=O)c1cc(Oc2ccc(CCC(=O)Nc3ccccc3)cc2)ccn1 [Compound A-12, 4-[4-(3-anilino-3-oxopropyl)phenoxy]-N-methylpyridine-2-carboxamide] | 1 to 10 µM
11 | O=C(CCc1cccc(Oc2ccnc(-c3ncc[nH]3)c2)c1)Nc1ccc(Cl)c(C(F)(F)F)c1 [Compound A-105, N-[4-chloro-3-(trifluoromethyl)phenyl]-3-(3-{[2-(1H-imidazol-2-yl)pyridin-4-yl]oxy}phenyl)propanamide] | 10 to 25 µM
12 | CN(C)CCNCc1cnc(-c2cc(Oc3cccc(CCC(=O)Nc4ccc(Cl)c(C(F)(F)F)c4)c3)ccn2)[nH]1 [Compound A-58, N-[4-chloro-3-(trifluoromethyl)phenyl]-3-[3-({2-[5-({[2-(dimethylamino)ethyl]amino}methyl)-1H-imidazol-2-yl]pyridin-4-yl}oxy)phenyl]propanamide] | 1 to 10 µM
13 | O=C(CCc1cccc(Oc2ccnc(C3=NCCN3)c2)c1)Nc1cc(C2=NCCN2)cc(C(F)(F)F)c1 [Compound A-51, 3-(3-{[2-(4,5-dihydro-1H-imidazol-2-yl)pyridin-4-yl]oxy}phenyl)-N-[3-(4,5-dihydro-1H-imidazol-2-yl)-5-(trifluoromethyl)phenyl]propanamide] | 1 to 10 µM
14 | O=C(CCc1cccc(Oc2ccnc(C3=NCCN3)c2)c1)Nc1cccc(OC(F)(F)F)c1 [Compound A-130, 3-(3-{[2-(4,5-dihydro-1H-imidazol-2-yl)pyridin-4-yl]oxy}phenyl)-N-[3-(trifluoromethoxy)phenyl]propanamide] | 1 to 10 µM
